# In all, about 150,000 compounds went through this assay and about 540 (0.36%) showed an effect of 50% or more. Some of the results follow.
# Tested on: Plasmodium falciparum
# Experiment: Primary screen in NF54 nanoGlo assay, in single point, at 2uM, 72h; a lower Z score goes with more inhibition
# Type: functional, Erythrocyte
# Settings: timepoint 72 hour
SMILES,% Inhibition [%],Z score
Cc1csc(Cn2c(=O)c(C#N)c3n(c2=O)CCC3)n1,-3,0.45
CCCC(=O)Nc1nc2n(n1)[C@H](c1ccc(Cl)cc1)CC(=O)N2,7,-0.91
CN1CCC(N[C@H]2CCCc3ccccc32)CC1,-15,2.79
Cc1onc(N)c1S(=O)(=O)N1CCOCC1,-20,1.8
CNc1ncccc1C(=O)NC[C@](C)(O)C(F)(F)F,2,-0.42
CC[C@@]1(C(=O)NCc2ccc(C)o2)CCCCC(=O)N1,-3,0.31
O=C(Nc1ccccc1-c1ccccc1)c1cc(C(=O)Nc2ccccc2-c2ccccc2)cc(N2C(=O)c3ccccc3C2=O)c1,4,-0.66
CCN(CC)C(=O)Cn1cc(C(=O)N(C)CCc2ccccn2)nn1,-12,1.52
NC1CC(c2cc(N3CCCCCCCC3)ncn2)C1 (stereo not drawn),-23,2.99
O=C(C1CCC2CCCCC2C1)N1CCC(O)(C(F)F)C1 (stereo not drawn),-12,1.74
CCNC(=O)c1cc(NC(=O)NCC2(CCOC)CC2)c(C)s1,3,-0.54
COc1ccc(Cn2nc(C)n(-c3ccc(Oc4ccccc4)cc3)c2=O)cc1,0,-0.05
CC[C@H]1CC(=O)NCc2nc3cc(C)ccn3c21,-2,0.29
COc1cccc(CN2CC3(CCN(C(=O)c4cccn4C)CC3)CC2=O)c1,1,-0.07
Cc1cccnc1N1CCN(C(=O)c2ccc(Cn3ccnc3)o2)CC1,-14,2.67
CC(=O)NC(C)(C)C[C@H](C)N1CCC2(CCCCCC2)C1,-15,1.38
CCCCNCCOCCOc1ccc(C)c(C)c1,-11,1.52
C[C@@H](COc1cccc(F)c1)NC(=O)c1nccn2ccnc12,-8,0.73
O=C(O)CCC(=O)NC1=NN2C(=NC(c3ccccc3)=C[C@H]2c2ccc(F)cc2)N1,-8,1.21
O=C(NC1CCN(C2CC2)CC1)C1CCCCCC1,-4,0.67
COC(=O)C1CC2CCCCC2N1S(=O)(=O)c1c(C)noc1C (stereo not drawn),-7,1.06
COCCN(Cc1ccsc1)Cc1cc(OC)ccn1,-8,0.88

SMILES,% Inhibition [%],Z score
CCN(CC)c1ccc([C@@H](C#N)N2CCOCC2)cc1,5,-0.62
C[C@@H](CC(=O)NCc1ccc[nH]1)N1CCCCC1=O,-9,1.35
CC(C)Oc1cccc(C(=O)NCc2cnc3n2CCC3)c1Cl,2,-0.35
CNc1snc(C)c1C(=O)N(C)CC1CCCCC1,1,-0.06
Cc1noc(NC(=O)Nc2cccc(C(F)(F)F)c2)c1C,-15,1.77
O=C(O[C@@H]1CCC[C@H]1n1cccn1)c1nc(C2CC2)n2ccccc12,-5,0.77
O=C(c1ncc(F)cc1F)N1CCC[C@H](c2nccn2CC2CC2)C1,1,-0.24
CC[C@@H](CO)NCc1ccc(OC)c(Cl)c1,11,-1.8
CCC(CC)NC(=O)Cn1c(-c2ccccc2)nn(-c2ccc(OC)cc2)c1=O,-13,1.24
COc1ccccc1OCC(=O)N1CCc2oncc2C1,-14,2.19
O=C(c1cncnc1)N1CCOCC12CC2,-14,2.1
CC(=O)N1CCc2cc(CNC(=O)c3ccc(C)cc3)ccc21,0,0.05
Cc1cc(C(=O)N[C@H]2CCOC[C@@H]2OCc2ccccn2)ccc1Cl,-12,1.68
N#Cc1cnn(-c2ccccc2)c1NC[C@H]1COC2(CCOCC2)O1,-6,0.86
COC(=O)c1cc(-c2cccc3ccccc23)on1,-13,2.38
Cc1ncc(CNCCCc2ccc(C(C)C)cc2)cn1,-5,0.67
Cn1ncnc1NC(=O)N1CC[C@H](c2cccc(C(F)(F)F)c2)C1,-6,0.64
Cn1ncc(C2CCC2)c1C(=O)N1CCC[C@H](c2nc3ccc(F)cc3o2)C1,-17,2.24
C[C@@H]1CN(S(=O)(=O)c2ccoc2)C[C@H](C)N1CC(F)(F)F,-8,1.23
O=C(NCCc1ccccc1)c1cc2n(n1)CCN(Cc1cccc(F)c1)C2=O,-10,1.44
CCc1cnccc1C(=O)N(C)C1(C(N)=O)CCCC1,-3,0.43
CCCCn1nc(-c2ccco2)nc1[C@H](CC)N1CCOCC1,2,-0.3

# From ChEMBL document CHEMBL4888484, “Replenishing the malaria drug discovery pipeline: Screening and hit evaluation of the MMV Hit Generation Library 1 (HGL1) against asexual blood stage Plasmodium falciparum ,using a nano luciferase reporter read-out” (2022)
